Assay results as given in US20260216242A1 (ALMAC DISCOVERY, published 2026).

T1: human ALPI expressed on CHO cells (CHO-ALPI) (human, UniProt P09923 20-503)
T1 sequence (looked up): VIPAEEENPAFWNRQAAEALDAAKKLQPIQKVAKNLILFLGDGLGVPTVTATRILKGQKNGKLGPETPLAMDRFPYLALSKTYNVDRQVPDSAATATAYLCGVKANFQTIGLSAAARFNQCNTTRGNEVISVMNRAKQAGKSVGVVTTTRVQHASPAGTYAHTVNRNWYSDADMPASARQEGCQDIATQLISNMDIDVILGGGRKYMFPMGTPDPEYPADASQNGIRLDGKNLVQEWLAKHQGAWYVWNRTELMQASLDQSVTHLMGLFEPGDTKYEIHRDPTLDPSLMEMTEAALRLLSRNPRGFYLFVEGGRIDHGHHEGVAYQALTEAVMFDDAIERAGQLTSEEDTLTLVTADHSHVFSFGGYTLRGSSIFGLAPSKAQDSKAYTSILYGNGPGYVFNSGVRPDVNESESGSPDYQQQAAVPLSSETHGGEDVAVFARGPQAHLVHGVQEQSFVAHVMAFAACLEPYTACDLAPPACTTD

T2: human ALPL expressed on CHO cells (CHO-ALPL) (human, UniProt P05186 18-501)
T2 sequence (looked up): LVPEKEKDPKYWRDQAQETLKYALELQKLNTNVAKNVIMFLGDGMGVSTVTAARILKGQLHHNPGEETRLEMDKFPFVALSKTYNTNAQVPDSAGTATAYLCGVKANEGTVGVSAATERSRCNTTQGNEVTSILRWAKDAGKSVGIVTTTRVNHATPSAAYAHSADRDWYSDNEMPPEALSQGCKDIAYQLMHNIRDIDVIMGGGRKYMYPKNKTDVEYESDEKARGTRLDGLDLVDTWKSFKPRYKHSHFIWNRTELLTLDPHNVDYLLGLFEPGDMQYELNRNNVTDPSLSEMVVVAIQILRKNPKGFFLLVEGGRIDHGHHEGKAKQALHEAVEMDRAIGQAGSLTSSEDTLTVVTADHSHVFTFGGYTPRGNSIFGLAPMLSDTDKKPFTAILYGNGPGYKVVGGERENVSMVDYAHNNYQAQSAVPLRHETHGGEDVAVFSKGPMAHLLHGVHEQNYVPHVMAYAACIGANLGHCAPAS

B1: D10 linker Cys-hFc-vcPAB-MMAE (S442C) (Fc fusion)
chain: QVQLVESGGGLVQPGGSLRLSCAASGSIFSVNTMGWYRQAPGKQRDLVAVATSGGTIHYADSVKGRFTISRDNAKNTVYLQMNSLKPEDTAVYYCNLVVPYGMIAGDHDYWGQGTKVTVSSGCGGSGGGGSGGGGS[human IgG1 Fc with changes not spelt out]
modifications: MC-vc-PAB-MMAE on the linker Cys and on Cys 442 (S442C, EU numbering); DAR 4.1
B2: A06-hFc (S239C)-MA-PEG4-vc-PAB-EDA-PNU159682 (Fc fusion)
chain: QVHLVESGGGLVQAGGSLRLSCAASGRTFLSMGWFRQAPGKEREFVAAISWTGGSTGYADSVKGRFTISRESDKETMYLQMNSLKPEDTAVYYCAARGDVYYGGDDATRYKYWGQGTQVTVSSGGGGSGGGGSGGGGS[human IgG1 Fc with changes not spelt out]
modifications: MA-PEG4-vc-PAB-EDA-PNU159682 on Cys 239 (S239C, EU numbering); DAR 1.93
B3: D10-hFc (S239C)-MA-PEG4-vc-PAB-EDA-PNU159682 (Fc fusion)
chain: QVQLVESGGGLVQPGGSLRLSCAASGSIFSVNTMGWYRQAPGKQRDLVAVATSGGTIHYADSVKGRFTISRDNAKNTVYLQMNSLKPEDTAVYYCNLVVPYGMIAGDHDYWGQGTKVTVSSGGGGSGGGGSGGGGS[human IgG1 Fc with changes not spelt out]
modifications: MA-PEG4-vc-PAB-EDA-PNU159682 on Cys 239 (S239C, EU numbering); DAR 2

Tests used:
Assay in all cases: cell-based or functional assay
[1] = target: human ALPP expressed on CHO cells (CHO-ALPP) (human, UniProt P05187 23-506)
[2] = target: T1, human ALPI expressed on CHO cells …
[3] = target: T2, human ALPL expressed on CHO cells …
[4] = target: human ALPPL2 expressed on CHO cells (CHO-ALPPL2) (human, UniProt P10696 20-503)
Chain of UniProt P10696 (P10696 20-503): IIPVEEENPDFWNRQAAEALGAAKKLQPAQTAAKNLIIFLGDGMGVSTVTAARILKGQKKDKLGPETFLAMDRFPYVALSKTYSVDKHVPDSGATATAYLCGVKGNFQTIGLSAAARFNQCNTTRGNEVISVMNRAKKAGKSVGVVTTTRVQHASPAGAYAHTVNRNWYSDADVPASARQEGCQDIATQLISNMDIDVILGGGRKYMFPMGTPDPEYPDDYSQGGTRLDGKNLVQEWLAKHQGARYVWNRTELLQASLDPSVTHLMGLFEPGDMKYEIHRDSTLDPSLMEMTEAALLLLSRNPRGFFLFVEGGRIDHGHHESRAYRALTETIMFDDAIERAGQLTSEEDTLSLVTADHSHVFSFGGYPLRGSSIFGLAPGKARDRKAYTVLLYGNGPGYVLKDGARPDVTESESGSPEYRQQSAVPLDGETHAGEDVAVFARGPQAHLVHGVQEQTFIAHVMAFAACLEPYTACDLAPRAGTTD

Chain of UniProt P05187 (P05187 23-506): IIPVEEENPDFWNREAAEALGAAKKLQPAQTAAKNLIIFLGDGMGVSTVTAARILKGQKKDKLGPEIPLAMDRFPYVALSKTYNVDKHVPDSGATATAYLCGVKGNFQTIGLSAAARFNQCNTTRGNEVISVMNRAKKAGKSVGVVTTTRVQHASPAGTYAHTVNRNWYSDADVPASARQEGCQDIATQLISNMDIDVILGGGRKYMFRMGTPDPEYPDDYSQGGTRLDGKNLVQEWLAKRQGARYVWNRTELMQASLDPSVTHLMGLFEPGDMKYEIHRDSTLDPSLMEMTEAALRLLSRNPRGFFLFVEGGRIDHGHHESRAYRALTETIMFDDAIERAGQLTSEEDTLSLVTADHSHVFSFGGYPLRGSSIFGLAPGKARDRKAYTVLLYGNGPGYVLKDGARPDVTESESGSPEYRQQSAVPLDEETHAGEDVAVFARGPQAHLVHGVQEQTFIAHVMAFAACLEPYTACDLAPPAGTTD

Row | Binder | cell killing IC50 @ 96 h, CHO-ALPP cells (Cell Titre Glo) [1] [nM] | cell killing IC50 @ 96 h, CHO-ALPI cells (Cell Titre Glo) [2] [nM] | cell killing IC50 @ 96 h, CHO-ALPL cells (Cell Titre Glo) [3] [nM] | cell killing IC50 @ 96 h, CHO-ALPPL2 cells (Cell Titre Glo) [4] [nM]
1 | B1 | 36.9 | > 664 | > 664 | 52.2
2 | B2 | 64.1 | 883 | > 1000 | 148
3 | B3 | 6.2 | 798 | > 1000 | 79.9
